Laboratory results: PubChem BioAssay (Tox21)
Several values for one entry are separate records, joined by “and”; a condition that tells them apart may be missing. Identical values can stand only once. Activity calls are given as the source filed them. Unless noted, the call rests on the fitted dose curve; in most records, active means well fitted curve in the direction sought with a large enough effect in the repeat runs; inconclusive means weak or mixed curves; inactive means no such curve, though single readings can be large; an effect the other way counts as inactive or inconclusive.

What was measured:
[1] = qHTS assay to identify small molecule antagonists of the androgen receptor (AR) signaling pathway - cell viability counter screen (AID 743033; further: nearly all actives have a fitted effect of over 45% in size; further: potency means the concentration at half of the fitted maximal effect); details: AR-bla HEK293 viability, CellTiter-Glo luminescence, 16 h; activity change, negative = cytotoxicity: at 58.5 µM (top of the series) unless noted
[2] = molecular target: Androgen receptor (Homo sapiens) (UniProt P10275); assay: qHTS assay to identify small molecule antagonists of the androgen receptor (AR) signaling pathway using the MDA cell line (AID 743042; further: potency means the concentration at half of the fitted maximal effect; nearly all actives have a fitted effect of over 55% in size)
Sequence of UniProt P10275 (P10275 whole entry, looked up): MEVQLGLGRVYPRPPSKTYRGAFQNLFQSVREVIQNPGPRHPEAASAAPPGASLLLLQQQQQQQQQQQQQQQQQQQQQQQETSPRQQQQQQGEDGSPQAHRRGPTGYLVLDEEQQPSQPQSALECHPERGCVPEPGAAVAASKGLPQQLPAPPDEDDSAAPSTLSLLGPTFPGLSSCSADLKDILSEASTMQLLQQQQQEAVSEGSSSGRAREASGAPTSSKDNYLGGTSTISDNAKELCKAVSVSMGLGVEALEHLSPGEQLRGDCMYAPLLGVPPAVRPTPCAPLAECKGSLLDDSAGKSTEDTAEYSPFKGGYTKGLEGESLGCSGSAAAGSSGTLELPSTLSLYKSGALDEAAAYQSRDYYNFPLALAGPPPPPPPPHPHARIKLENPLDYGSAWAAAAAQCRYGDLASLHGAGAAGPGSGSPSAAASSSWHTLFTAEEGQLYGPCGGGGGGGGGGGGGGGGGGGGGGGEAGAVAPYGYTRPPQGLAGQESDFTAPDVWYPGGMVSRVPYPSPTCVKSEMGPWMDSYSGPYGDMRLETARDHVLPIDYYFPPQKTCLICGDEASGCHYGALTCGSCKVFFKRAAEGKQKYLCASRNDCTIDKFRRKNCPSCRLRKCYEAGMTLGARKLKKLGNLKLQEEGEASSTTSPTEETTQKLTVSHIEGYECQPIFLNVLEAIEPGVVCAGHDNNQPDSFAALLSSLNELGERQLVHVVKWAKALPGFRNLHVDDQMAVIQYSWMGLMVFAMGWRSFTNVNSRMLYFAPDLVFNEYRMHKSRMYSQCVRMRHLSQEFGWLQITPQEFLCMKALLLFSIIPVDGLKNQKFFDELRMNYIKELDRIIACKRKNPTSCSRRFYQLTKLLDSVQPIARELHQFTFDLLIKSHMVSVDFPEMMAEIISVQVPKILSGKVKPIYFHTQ
In short: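 Antagonist mode: compounds plus R1881 agonist added to MDA-kb2 AR-luc cells, incubated 16 h at 37C. Luciferase reporter luminescence quantified, with multiplexed CellTiter-Fluor readout for cell viability.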

[3] = qHTS assay to identify small molecule antagonists of the thyroid receptor (TR) signaling pathway (AID 743065); further: potency means the concentration at half of the fitted maximal effect; nearly all actives have a fitted effect of over 55% in size
In short: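 Antagonism measured as loss of luciferase signal in GH3 cells stably carrying a TRE-luciferase reporter, co-treated with compound and T3 (1 nM final) for 23.5 h at 37 C. Viability was read in the same well by CellTiter-Fluor.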

[4] = test system: thyroid hormone receptor (rat, GH3 cells); assay: qHTS assay to identify small molecule agonists of the thyroid receptor (TR) signaling pathway (AID 743066; calls by dose curve; further: potency means the concentration at half of the fitted maximal effect; on activation: on the % scale 0 is the no-effect control and ±100 the full control effect); details: GH3.TRE-Luc cells, TR agonist luciferase, 24 h; activation: at 83.9 µM (top of the series) unless noted
[5] = qHTS assay to identify small molecule antagonists of the estrogen receptor alpha (ER-alpha) signaling pathway - cell viability counter screen (AID 743074; calls by dose curve; further: potency means the concentration at half of the fitted maximal effect; nearly all actives have a fitted effect of over 45% in size)
[6] = molecular target: Estrogen receptor (Homo sapiens) (UniProt P03372); assay: qHTS assay to identify small molecule agonists of the estrogen receptor alpha (ER-alpha) signaling pathway (AID 743075; calls by dose curve; further: potency means the concentration at half of the fitted maximal effect)
Sequence of UniProt P03372 (P03372 whole entry, looked up): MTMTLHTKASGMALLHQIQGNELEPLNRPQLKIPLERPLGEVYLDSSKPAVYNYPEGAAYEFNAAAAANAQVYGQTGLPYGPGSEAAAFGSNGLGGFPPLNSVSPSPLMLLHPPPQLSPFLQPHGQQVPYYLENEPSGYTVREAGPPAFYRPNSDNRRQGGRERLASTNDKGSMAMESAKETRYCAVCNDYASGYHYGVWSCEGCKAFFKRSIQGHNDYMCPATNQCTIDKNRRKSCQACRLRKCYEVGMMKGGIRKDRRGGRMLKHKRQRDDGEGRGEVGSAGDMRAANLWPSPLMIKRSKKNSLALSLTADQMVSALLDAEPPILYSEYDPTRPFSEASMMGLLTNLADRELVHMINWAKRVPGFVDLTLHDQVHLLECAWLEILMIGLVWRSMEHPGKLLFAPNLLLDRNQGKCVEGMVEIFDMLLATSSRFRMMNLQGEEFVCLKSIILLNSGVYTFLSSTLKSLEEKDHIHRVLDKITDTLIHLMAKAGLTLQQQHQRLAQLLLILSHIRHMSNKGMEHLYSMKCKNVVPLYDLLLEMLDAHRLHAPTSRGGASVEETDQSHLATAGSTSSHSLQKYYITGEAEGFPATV

[7] = molecular target: Estrogen receptor (Homo sapiens) (UniProt P03372); assay: qHTS assay to identify small molecule agonists of the estrogen receptor alpha (ER-alpha) signaling pathway using the BG1 cell line (AID 743079); details: BG1Luc4E2 cells, ERE-luciferase agonist, 22 h; activation: at 70.3 µM (top of the series) unless noted; further: nearly all actives have a fitted effect of over 20% in size; further: potency means the concentration at half of the fitted maximal effect; on activation: on the % scale 0 is the no-effect control and ±100 the full control effect
[8] = qHTS assay to identify small molecule antagonists of the estrogen receptor alpha (ER-alpha) signaling pathway using the BG1 cell line (AID 743080; calls by dose curve;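 further: BG1 cells stimulated with 17beta-estradiol alongside compound; potency means the concentration at half of the fitted maximal effect; nearly all actives have a fitted effect of over 25% in size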); details: BG1Luc4E2 ERE-luciferase antagonist mode, luminescence; activity change, negative = inhibition: at 70.3 µM (top of the series) unless noted
In short: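 Luciferase inhibition measured with ONE-Glo after 30 min at RT in BG1Luc4E2 cells given test compounds and 17beta-estradiol for 21.5 h at 37 C; CellTiter-Fluor viability read in the same wells beforehand.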

[9] = qHTS assay to identify small molecule antagonists of the estrogen receptor alpha (ER-alpha) signaling pathway using the BG1 cell line - cell viability counter screen (AID 743081); details: BG1Luc4E2 viability, CellTiter-Fluor, 22 h; activity change, negative = cytotoxicity: at 70.3 µM (top of the series);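 further: compound given together with 17beta-estradiol as the ER stimulus; nearly all actives have a fitted effect of over 45% in size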; further: potency means the concentration at half of the fitted maximal effect; on activity change, negative = cytotoxicity: on the % scale 0 is the no-effect control and ±100 the full control effect
[10] = qHTS assay to identify aromatase inhibitors - cell viability counter screen (AID 743084); details: MCF-7 aro ERE viability, CellTiter-Fluor, 24 h; activity change, negative = cytotoxicity: at 70.3 µM (top of the series) unless noted;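 further: cells stimulated with testosterone during compound exposure; potency means the concentration at half of the fitted maximal effect; nearly all actives have a fitted effect of over 55% in size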
[11] = molecular target: Aryl hydrocarbon receptor (Homo sapiens) (UniProt P35869); assay: qHTS assay to identify small molecule that activate the aryl hydrocarbon receptor (AhR) signaling pathway (AID 743085); further: potency means the concentration at half of the fitted maximal effect; nearly all actives have a fitted effect of over 15% in size
Sequence of UniProt P35869 (P35869 whole entry, looked up): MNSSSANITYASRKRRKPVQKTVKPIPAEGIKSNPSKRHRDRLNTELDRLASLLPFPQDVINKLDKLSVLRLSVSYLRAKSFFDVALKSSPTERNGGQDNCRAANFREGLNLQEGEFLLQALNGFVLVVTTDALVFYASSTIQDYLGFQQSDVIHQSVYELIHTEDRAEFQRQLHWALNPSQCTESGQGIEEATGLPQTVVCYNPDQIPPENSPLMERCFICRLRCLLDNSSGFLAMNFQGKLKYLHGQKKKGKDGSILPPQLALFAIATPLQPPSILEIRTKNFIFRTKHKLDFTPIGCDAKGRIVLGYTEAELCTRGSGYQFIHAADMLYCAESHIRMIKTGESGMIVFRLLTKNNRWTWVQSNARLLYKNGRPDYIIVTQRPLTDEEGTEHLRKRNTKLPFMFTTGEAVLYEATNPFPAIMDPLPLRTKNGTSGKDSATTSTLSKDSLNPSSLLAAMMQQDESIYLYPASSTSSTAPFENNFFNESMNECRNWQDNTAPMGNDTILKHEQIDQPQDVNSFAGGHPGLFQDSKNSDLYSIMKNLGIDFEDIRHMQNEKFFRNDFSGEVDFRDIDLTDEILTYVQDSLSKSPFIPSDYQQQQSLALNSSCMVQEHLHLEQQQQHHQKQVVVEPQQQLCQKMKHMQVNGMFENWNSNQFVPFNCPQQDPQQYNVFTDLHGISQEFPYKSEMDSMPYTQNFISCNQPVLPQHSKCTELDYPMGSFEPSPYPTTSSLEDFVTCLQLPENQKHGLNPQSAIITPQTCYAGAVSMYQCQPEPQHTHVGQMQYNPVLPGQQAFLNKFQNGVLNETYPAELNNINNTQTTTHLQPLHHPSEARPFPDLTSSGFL
In short: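 HepG2 cells stably carrying a 20-DRE firefly luciferase reporter (HG2L7.5c1) treated with compound for 24 hr at 37C. Luciferase read by ONE-Glo luminescence, with CellTiter-Fluor viability read first.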

[12] = qHTS assay to identify small molecule antagonists of the androgen receptor (AR) signaling pathway using the MDA cell line - cell viability counter screen (AID 743041; further: potency means the concentration at half of the fitted maximal effect; nearly all actives have a fitted effect of over 45% in size); details: MDA-kb2 viability, CellTiter-Fluor, 16 h, cells co-treated with R1881 androgen agonist; viability change, negative = cytotoxic: at 70.3 µM (top of the series) unless noted
In short: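 Using the breast carcinoma line MDA-kb2 AR-luc, test chemicals were co-incubated with R1881 for 16 h; CellTiter-Fluor reagent, added at 15.5 h, provided a fluorescence measure of live cells.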

[13] = qHTS assay to identify small molecule antagonists of the thyroid receptor (TR) signaling pathway - cell viability counter screen (AID 743064); details: GH3.TRE-Luc viability, CellTiter-Fluor, 24 h; activity change, negative = cytotoxic: at 70.3 µM (top of the series) unless noted; further: potency means the concentration at half of the fitted maximal effect; nearly all actives have a fitted effect of over 50% in size
In short: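 GH3.TRE-Luc rat pituitary cells dosed after 4 hr plating, co-stimulated with T3 at 1 nM final, incubated 23.5 h at 37 C. Viability measured in the same wells by CellTiter-Fluor fluorescence after 30 min further at 37 C.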

[14] = molecular target: Estrogen receptor (Homo sapiens) (UniProt P03372); assay: qHTS assay to identify small molecule antagonists of the estrogen receptor alpha (ER-alpha) signaling pathway (AID 743069; active means well fitted curve in the direction sought with a large enough effect in the signal ratio in the repeat runs, not every such curve was filed as active; inconclusive means weak or mixed curves, or effect the other way; inactive means no such curve, though single readings can be large or run the other way; the % refers to the signal ratio; further: potency means the concentration at half of the fitted maximal effect); details: HEK293 ER-alpha-UAS-bla, beta-lactamase ratio, antagonist mode; activity, negative = inhibition: at 69.4 µM (top of the series) unless noted
In short: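 Fluorescence intensity from a beta-lactamase FRET substrate served as the read-out. Cells: HEK293 with stably integrated ER-alpha-UAS-bla reporter. Agonist 17beta-estradiol was co-added with compounds; incubation 18 hr at 37C, substrate 2 hr at room temperature.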

[15] = molecular target: Peroxisome proliferator-activated receptor gamma (Homo sapiens) (UniProt P37231); assay: qHTS assay to identify small molecule agonists of the peroxisome proliferator-activated receptor gamma (PPARg) signaling pathway (AID 743094; active means well fitted activation curve with a large enough effect in the signal ratio in the repeat runs, not every such curve was filed as active; inconclusive means weak or mixed curves, or effect the other way; inactive means no such curve, though single readings can be large or run the other way; the % refers to the signal ratio; further: on the % scale 0 is the no-effect control and ±100 the full control effect); details: HEK293H PPARg-UAS-bla, beta-lactamase FRET ratio, 17 h; activation: at 57 µM (top of the series) unless noted
Sequence of UniProt P37231 (P37231 whole entry, looked up): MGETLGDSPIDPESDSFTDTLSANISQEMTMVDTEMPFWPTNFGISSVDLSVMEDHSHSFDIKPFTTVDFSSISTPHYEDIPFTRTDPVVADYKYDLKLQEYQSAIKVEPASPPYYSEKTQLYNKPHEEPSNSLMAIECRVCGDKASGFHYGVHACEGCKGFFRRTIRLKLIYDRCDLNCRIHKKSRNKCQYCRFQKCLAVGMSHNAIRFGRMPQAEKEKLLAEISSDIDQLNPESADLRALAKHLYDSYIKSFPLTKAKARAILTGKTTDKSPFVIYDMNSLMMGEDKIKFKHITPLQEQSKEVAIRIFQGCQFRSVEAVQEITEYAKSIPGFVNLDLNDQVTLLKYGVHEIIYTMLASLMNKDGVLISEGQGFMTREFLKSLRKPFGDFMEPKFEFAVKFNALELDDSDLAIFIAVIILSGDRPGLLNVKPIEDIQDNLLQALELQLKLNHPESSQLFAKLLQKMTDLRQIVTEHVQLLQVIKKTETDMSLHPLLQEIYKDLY
In short: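 Cell-based bla reporter, HEK293H background, PPARg-driven UAS. Pre-incubation 5 h, 37C, 5% CO2. Compound 17 h, 37C. Substrate 1 h RT; fluorescence.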

[16] = molecular target: Aromatase (Homo sapiens) (UniProt P11511); assay: qHTS assay to identify aromatase inhibitors (AID 743083); details: MCF-7 aro ERE, testosterone-driven ERE luciferase, 24 h; activity, negative = inhibition: at 70.3 µM (top of the series); further: potency means the concentration at half of the fitted maximal effect; nearly all actives have a fitted effect of over 55% in size
Sequence of UniProt P11511 (P11511 whole entry, looked up): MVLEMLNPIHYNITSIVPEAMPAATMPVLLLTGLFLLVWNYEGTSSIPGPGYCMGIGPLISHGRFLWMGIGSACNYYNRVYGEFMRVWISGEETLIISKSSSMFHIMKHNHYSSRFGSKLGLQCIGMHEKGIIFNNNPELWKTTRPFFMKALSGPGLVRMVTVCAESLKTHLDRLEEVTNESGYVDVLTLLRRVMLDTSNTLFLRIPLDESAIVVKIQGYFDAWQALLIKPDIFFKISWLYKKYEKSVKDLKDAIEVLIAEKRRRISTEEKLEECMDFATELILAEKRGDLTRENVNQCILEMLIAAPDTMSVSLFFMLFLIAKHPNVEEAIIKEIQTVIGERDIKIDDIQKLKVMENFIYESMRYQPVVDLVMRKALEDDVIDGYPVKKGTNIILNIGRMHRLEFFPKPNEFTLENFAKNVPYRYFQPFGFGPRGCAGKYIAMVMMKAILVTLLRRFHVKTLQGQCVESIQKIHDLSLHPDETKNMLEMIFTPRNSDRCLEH

[17] = qHTS assay to identify small molecule that activate the aryl hydrocarbon receptor (AhR) signaling pathway - cell viability counter screen (AID 743086)
In short: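 Cytotoxicity counter screen: CellTiter-Fluor signal (30 min, 37 C) in 4000 HepG2 cells/well carrying the DRE-luciferase reporter, following 24 h compound exposure at 37 C.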
Tags describe the fitted curve by direction and shape or compound fluorescence and quenching.

Structure (SMILES): N#Cc1cc(Br)c(O)c(Br)c1
- Potency [1]: inconclusive: 17.4 µM [cytotoxic, partial curve, poor fit] and inconclusive: 37.5 µM [cytotoxic, partial curve]
- Potency [2]: active: 61.1 µM and inconclusive: 58.9 µM [inhibitor, single point]
- Potency [3]: inconclusive: 52.5 µM [inhibitor]
- activation [4]: inconclusive: -6.72% [phenotype inactive]
- Potency [5]: inconclusive: 9.76 µM [cytotoxic, full curve, poor fit]
- Potency [6]: inconclusive: 4.2 µM [falling, full curve, poor fit]
- Potency [7]: inconclusive: 68.5 µM [inhibitor, single point]
- activation [7]: inconclusive: -25.5% [phenotype inactive]
- Potency [8]: active: 68.5 µM and active: 52.5 µM
- Potency [9]: inconclusive: 76.9 µM [cytotoxic, partial curve, poor fit] and inactive
- Potency [10]: inconclusive: 23.4 µM [rising, partial curve, poor fit]
- Potency [11]: inconclusive: 27.3 µM [activator, single point] and inconclusive: 23.4 µM [activator, single point]

Structure (SMILES): CC1(C)CCC(Cc2ccc(Cl)cc2)C1(O)Cn1cncn1 (stereo not given)
- Potency [1]: inconclusive: 49 µM [cytotoxic, single point]
- Potency [12]: inconclusive: 68.6 µM [cytotoxic, single point]
- Potency [13]: inconclusive: 68.6 µM [cytotoxic, single point]
- Potency [14]: active: 61.6 µM [inconclusive]
- Potency [7]: inconclusive: 77 µM [inhibitor, partial curve, poor fit]
- Potency [8]: active: 61.1 µM
- activation [15]: inconclusive: -13.2%

Structure (SMILES): Cc1c([N+](=O)[O-])c(C)c([N+](=O)[O-])c(C(C)(C)C)c1[N+](=O)[O-]
- Potency [1]: inactive
- Potency [13]: inconclusive: 68.6 µM [cytotoxic, single point]
- Potency [3]: inconclusive: 68.6 µM [inhibitor, single point]
- Potency [4]: inactive
- Potency [7]: inactive
- Potency [9]: inactive
- Potency [16]: inconclusive: 68.6 µM [inhibitor, single point]

Structure (SMILES): CC(C)(C)c1cc([N+](=O)[O-])cc(C(C)(C)C)c1O
- Potency [1]: active: 5.49 µM
- Potency [12]: active: 12.2 µM
- Potency [13]: active: 12.2 µM
- Potency [14]: inconclusive: 3.09 µM [rising, full curve]
- Potency [5]: inconclusive: 4.36 µM [cytotoxic, full curve]
- Potency [6]: inconclusive: 6.92 µM [full curve]
- Potency [7]: inconclusive: 4.86 µM [inhibitor, full curve]
- Potency [8]: inconclusive: 6.86 µM [falling, full curve]
- Potency [9]: inconclusive: 6.11 µM [cytotoxic, full curve]
- Potency [10]: active: 21.7 µM

Structure (SMILES): CC(C)N(C(=O)COc1nnc(C(F)(F)F)s1)c1ccc(F)cc1
- Potency [1]: inconclusive: 54.9 µM [cytotoxic, single point]
- Potency [13]: inconclusive: 27.3 µM [rising, partial curve]
- Potency [3]: inconclusive: 77 µM [inhibitor, single point]
- Potency [7]: inactive
- Potency [11]: inconclusive: 27.3 µM [activator, partial curve, poor fit]

Structure (SMILES): O=C(Nc1ccccc1)Nc1cnns1
- Potency [1]: inconclusive: 38.9 µM [cytotoxic, partial curve, poor fit]
- Potency [12]: inconclusive: 68.5 µM [cytotoxic]
- Potency [14]: inconclusive: 24.5 µM [inhibitor, partial curve]
- Potency [7]: inconclusive: 68.5 µM [inhibitor]
- Potency [8]: active: 68.5 µM
- Potency [16]: inconclusive: 27.3 µM [inhibitor, partial curve]
- Potency [11]: active: 15.3 µM
- Potency [17]: inconclusive: 68.5 µM [falling, single point]

Structure (SMILES): CCCCNC(=O)OCC#CI
- Potency [1]: active: 12.2 µM and active: 19.5 µM
- Potency [12]: active: 60.8 µM and inconclusive: 68.6 µM [cytotoxic, single point]
- Potency [4]: inactive and inconclusive: 30.6 µM [inhibitor, partial curve, poor fit]
- Potency [14]: inconclusive: 54.7 µM [activator, single point]
- activity, negative = inhibition [14]: inconclusive: 29.1%
- Potency [5]: inconclusive: 54.7 µM [cytotoxic, partial curve, poor fit] and inconclusive: 110 µM [cytotoxic, single point]
- Potency [7]: inconclusive: 24.2 µM [inhibitor, partial curve] and inconclusive: 54.5 µM [inhibitor, partial curve]
- Potency [8]: active: 60.8 µM and active: 68.6 µM
- Potency [9]: inconclusive: 60.8 µM [cytotoxic, single point]
- Potency [17]: inconclusive: 34.4 µM [falling, partial curve, poor fit]
- activation [15]: inconclusive: 16.8% and inconclusive: 21.1%
